The whole screen tested about 310,000 compounds, of which about 14,000 (4.5%) showed an effect of 50% or more. Effects have a minus sign here. Some of the results follow.
molecular target: human ether-à-go-go-related gene (hERG) potassium channel (human, UniProt Q12809); test: primary screen, population patch clamp on CHO cells stably expressing hERG
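Note: peak tail current of the secondary pulse compared with the same well before compound.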

Chain of human ether-à-go-go-related gene (hERG) potassium channel (Q12809 whole entry, looked up): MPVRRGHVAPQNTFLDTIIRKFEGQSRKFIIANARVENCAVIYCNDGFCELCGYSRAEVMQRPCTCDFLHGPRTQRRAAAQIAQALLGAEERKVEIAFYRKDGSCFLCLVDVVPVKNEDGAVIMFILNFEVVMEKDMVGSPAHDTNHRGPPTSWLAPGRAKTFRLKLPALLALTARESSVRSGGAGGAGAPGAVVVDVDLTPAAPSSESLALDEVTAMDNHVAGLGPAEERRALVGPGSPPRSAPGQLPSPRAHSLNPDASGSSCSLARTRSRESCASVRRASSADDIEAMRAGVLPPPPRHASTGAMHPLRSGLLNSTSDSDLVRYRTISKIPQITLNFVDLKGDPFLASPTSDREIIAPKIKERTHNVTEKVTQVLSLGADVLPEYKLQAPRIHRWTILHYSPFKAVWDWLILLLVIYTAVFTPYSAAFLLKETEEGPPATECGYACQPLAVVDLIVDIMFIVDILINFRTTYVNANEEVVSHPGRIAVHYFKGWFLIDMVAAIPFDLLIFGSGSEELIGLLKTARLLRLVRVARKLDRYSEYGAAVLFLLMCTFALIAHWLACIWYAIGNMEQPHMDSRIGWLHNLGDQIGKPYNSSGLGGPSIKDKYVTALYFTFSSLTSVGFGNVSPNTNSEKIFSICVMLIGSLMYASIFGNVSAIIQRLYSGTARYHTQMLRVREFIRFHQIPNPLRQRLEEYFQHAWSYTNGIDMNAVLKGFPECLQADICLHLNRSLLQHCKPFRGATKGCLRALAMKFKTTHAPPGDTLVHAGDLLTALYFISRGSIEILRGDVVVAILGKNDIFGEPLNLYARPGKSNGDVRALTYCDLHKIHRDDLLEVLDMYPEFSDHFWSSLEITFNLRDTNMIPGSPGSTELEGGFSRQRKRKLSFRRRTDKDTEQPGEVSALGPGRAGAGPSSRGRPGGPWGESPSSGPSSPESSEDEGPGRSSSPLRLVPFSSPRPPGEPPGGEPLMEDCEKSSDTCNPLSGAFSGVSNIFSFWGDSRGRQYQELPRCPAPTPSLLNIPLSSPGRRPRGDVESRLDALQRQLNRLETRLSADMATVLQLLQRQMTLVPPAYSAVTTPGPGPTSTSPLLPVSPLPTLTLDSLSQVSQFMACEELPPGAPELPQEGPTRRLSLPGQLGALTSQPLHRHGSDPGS

Structure (SMILES) | hERG current change (%, negative = inhibition) at 10uM
COc1ccc(Cl)cc1NC(=S)NCc1ccco1 | -6.54%
COc1ccc(C)cc1NC(=O)c1cc2c(s1)CCC2 | -5.71%
O=C(NCc1ccco1)/C(=C/c1ccc(Br)cc1)NC(=O)c1ccco1 | 0.657%
Cn1c(NC(=O)Cc2cccs2)cc(=O)n(C)c1=O | 4.44%
CN(C)c1cc[n+](CC(=O)Nc2ccc(Oc3ccccc3)cc2)cc1.[Cl-] | -36.5%
O=C(CSc1ccccn1)N/N=C/c1cccc([N+](=O)[O-])c1 | -9.04%
CCOc1ccc(NC(=O)C2CCN(S(=O)(=O)c3ccc4c(c3)NC(=O)C(C)S4)CC2)cc1 (centres unmarked) | 28.5%
O=C(O)c1cn(Cc2ccccc2)nc1-c1cccnc1 | 17.5%
CC(C)Oc1ccc(CCC(=O)NNC(=S)Nc2ccccc2)cc1 | 28.1%
CON=C1CCN(c2ncc(C(F)(F)F)cc2Cl)CC1 | -5.78%
O=C(O)C1C2C=CC(C2)C1C(=O)NCc1ccc(Cl)cc1Cl (centres unmarked) | 9.84%
COc1ccc(CCNc2oc(-c3ccccc3OC)nc2C#N)cc1 | -20.6%
Nc1ccc(Nc2nc(-c3cccs3)cs2)cc1 | 3.53%
CO/N=C/C(=N\Nc1ccc(OC)cc1)C(=O)c1ccc(F)cc1 | 9.21%
COc1cc(CC(=O)NCc2cccs2)cc(OC)c1OC | -5.54%
Cc1nn(C(C)C(=O)NCc2ccccc2)c(C)c1[N+](=O)[O-] (centres unmarked) | 9.44%
Cc1c(Cl)cccc1NC(=S)NCc1ccccc1Cl | 22.1%
COc1ccc(CC(=O)Nc2cccnc2)cc1 | 21.7%
Cc1ccc(-c2noc(C3CCCN(S(=O)(=O)c4ccc(S(=O)(=O)N(C)C)cc4)C3)n2)o1 (centres unmarked) | 7.3%
COCCCNC(=O)c1ccc(OC)c(OC2CCN(C(C)C)CC2)c1 | 10.3%
CCOc1ccc(S(=O)(=O)N2CCCCC2)cc1NC(=O)C1CSC2(C)CCC(=O)N12 (centres unmarked) | -49.7%
CS(=O)(=O)c1ccccc1-c1nnc(-c2ccc(Cl)cc2)o1 | -5.81%
CC(C)CCNC(=O)Nc1ccc2c(c1)N(C)C(=O)CS2 | 0.526%

Structure (SMILES) | hERG current change (%, negative = inhibition) at 10uM
CC1(C)C2CCC1(C)C(OC(=O)CNc1ccccc1)C2 (centres unmarked) | 4.73%
CCC(Oc1ccccc1)C(=O)NCc1cccnc1 (centres unmarked) | 6.28%
O=C(COc1ccc2c(C(F)(F)F)cc(=O)oc2c1)NCc1cccs1 | 12.9%
CCN(CC(=O)Nc1ccc(NC(C)=O)cc1)C(=O)c1sc2nc3n(c(=O)c2c1C)CCC3 | 2.85%
COc1ccc(C(=O)ON=C2CCN(C)CC2)cc1.Cl | 12.8%
CCN(CC)S(=O)(=O)c1ccc(Cl)c(C(=O)Nc2nnc(C)s2)c1 | -2.96%
Cc1cccc([C@@H](NC(=O)OC(C)(C)C)C(=O)OC(C)(C)C)c1 | -15.6%
CSC1=NC(NCCCO)c2c(sc3c2CC(C)(C)OC3)N1 (centres unmarked) | -7.67%
COc1cc2cc(C(c3nnnn3C3CCCC3)N3CCc4ccccc43)c(=O)[nH]c2cc1OC (centres unmarked) | 16%
CCn1c(Cc2ccccc2)nnc1SCC(=O)NC(C)(C)C | -5.03%
O=C(Nc1ncccn1)c1cc(-c2ccc(F)cc2)nc2ccccc12 | -13.5%
CCOC(=O)C1=C(CCc2ccccc2)NC(=O)NC1c1ccc2ccccc2c1 (centres unmarked) | 10.1%
CCN1C(=O)[C@@H]2[C@@H](c3ccc(-c4ccc(Cl)c(Cl)c4)c(OC)c3)N3CCC[C@@]3(C(=O)OC)[C@@H]2C1=O.O=C(O)C(F)(F)F | -3.85%
Cc1ccc(NC(=O)CCCNC(=O)c2ccc(Cl)cc2)c(Br)c1 | 15.1%
CCC1CCCCN1CCCNC(=O)c1ccc2c(=O)n(CCOC)c(=O)[nH]c2c1 (centres unmarked) | 23.5%
C=CCn1c(SCC(=O)Nc2cc(C)on2)nnc1C1COc2ccccc2O1 (centres unmarked) | -13.2%
COc1ccc(OCC(O)CNS(=O)(=O)c2cccs2)cc1 (centres unmarked) | 17.9%
COc1ccc(/C=N/NC(=S)NC2CCS(=O)(=O)C2)cc1 (centres unmarked) | 8.74%
O=Cc1c(NCCc2ccc(F)cc2)c2ccccc2[nH]c1=O | -29%
COc1ccc(C(=O)NCc2nnc(SCC(=O)NCc3ccco3)o2)cc1OC | 15.3%
CN(C)CCCNC(=O)CCc1ncc(C(F)(F)F)cc1Cl | 4.48%
COc1ccc(-c2cc(C(=O)N(C)Cc3ccccc3)c3ccccc3n2)cc1 | -4.41%
COc1cnn(Cc2ccccc2)c(=O)c1SCc1ccccc1 | -22.9%

Structure (SMILES) | hERG current change (%, negative = inhibition) at 10uM
CCOc1ccc2nc(SCC(=O)NNC(=O)c3ccco3)c(C)cc2c1 | 4.33%
O=C(CSc1nnc(Cc2ccccc2)n1-c1ccccc1)NNC(=O)Cc1ccccc1 | -4.04%
Cc1c(NC(=O)C(C)OC(=O)Cc2ccc(F)cc2)c(=O)n(-c2ccccc2)n1C (centres unmarked) | 8.45%
c1ccc(C2=NC(c3ccccc3)N=C(c3ccccc3)N2)cc1 | -6.66%
Cc1ccc(SCCNC(=O)c2ccc(C)c(S(=O)(=O)Nc3cccc(C)c3)c2)cc1 | 15.5%
O=C(CSC1=NCCS1)Nc1ccc2ccccc2c1 | 8.49%
CCCC(=O)NC(c1ccc(OC)cc1)c1ccc2cccnc2c1O (centres unmarked) | -33.9%
Cc1ccc(CCNC(=O)C2CCN(S(=O)(=O)N3CCOCC3)CC2)cc1 | 3.73%
Cc1c(NC(=O)CSc2nc3ccccc3[nH]2)c(=O)n(-c2ccccc2)n1C | 1.28%
COc1ccc(-n2nnnc2SCC(=O)c2ccc3c(c2)OCCO3)cc1 | 20.6%
COC(=O)c1ccc(COC(=O)C(CCSC)NC(=O)COc2ccccc2)cc1 (centres unmarked) | -9.2%
COc1ccc(NS(=O)(=O)c2cc(NC(=O)c3nc4nc(C)cc(C)n4n3)ccc2C)cc1 | -5.99%
Cc1cc(/C=N/n2cnnc2)c(C)n1-c1ccccc1 | -4.02%
CC(C)C(NC(=O)Nc1ccccc1)C(=O)Nc1cccc(S(=O)(=O)N(C)C)c1 (centres unmarked) | 7.26%
CC1CCN(C(=O)CCN2C(=O)C3C4C=CC(C4)C3C2=O)CC1 (centres unmarked) | 12.8%
C=CCN(C(=O)OC(C)(C)C)S(=O)(=O)NCc1ccccc1 | -4.15%
Cc1cc(C)c(NC(=O)c2cc(S(=O)(=O)N3CCOCC3)ccc2F)c(C)c1 | 1.16%
Cc1nn(CC(=O)N(C)c2c(N)n(Cc3ccccc3)c(=O)[nH]c2=O)c(C)c1[N+](=O)[O-] | -4.6%
Cc1ccc(NC(=O)NC(=O)N(c2ccccc2)S(C)(=O)=O)cc1 | 7.89%
Cc1ccc(CNC(=O)CS(=O)(=O)c2ccccc2)cc1 | 8.4%
CCOC(=O)C1=C(C)SC2=NS(=O)(=O)CCN21 | 11.7%
CCCCCc1ccc(-c2cn(CCCOCc3ccccc3)nn2)cc1 | 1.95%
CC(=O)c1cn(Cc2ccccc2)c(=O)[nH]c1=O | 4.02%

Structure (SMILES) | hERG current change (%, negative = inhibition) at 10uM
O=C(Nc1cc2c3c(c1)CC(=O)N3CCC2)c1cccc(F)c1 | -10%
O=C1NCCCC1C(=O)Nc1ccccc1C(F)(F)F (centres unmarked) | -3.53%
CC(=O)Nc1ccc([As](=O)(O)c2ccc([N+](=O)[O-])cc2)cc1 | -11.8%
Cc1cnc(C(=O)NCc2ccc(F)cc2)cn1 | 10.4%
Cc1nn(CC(=O)N2CCN(C)CC2)c(=O)c2c1sc1ccccc12 | -6.99%
CCOc1ccc2c(C)c(Cl)c(=O)oc2c1 | -3.01%
Nn1c(SCC(=O)N2CCc3ccccc3C2)nnc1-c1cccs1 | -22.8%
CC(C)c1c(C(=O)N/N=C/c2ccoc2)nnn1-c1nonc1N | 5.84%
O=C(NC1CCCC1)C(c1cccnc1)N(C(=O)c1csnn1)c1ccc(F)cc1 (centres unmarked) | -13.3%
COc1cc(/C=C2\CCC/C(=C\c3ccc(O)c(OC)c3)C2=O)ccc1O | 9.33%
CC(=O)c1cc2c(cc1NC(=O)CCNC(=O)c1ccccc1Cl)OCO2 | -9.06%
CC(C)OCCCNC(=O)c1ccc(NC(=O)C2=CSCCO2)cc1 | 17.5%
CCOC(=O)C(=CNc1cc(C)ccc1C)C(=O)OCC | -1.26%
CCCCOC(=O)c1ccc(NC(=O)CSc2nncn2C)cc1 | -4.57%
O=C(NCc1ccc(N2CCCC2=O)cc1)Nc1ccccc1 | 14.5%
O=C(Oc1ccccc1/C=C\C(=O)c1cc2ccccc2o1)c1ccccc1 | 12.3%
COC(=O)c1scc(S(=O)(=O)c2ccccc2)c1N | 14.9%
O=C(O)c1cccnc1SC1CC(=O)N(c2cccc(C(F)(F)F)c2)C1=O (centres unmarked) | 5.2%
COc1ccc(C(=O)NC2CC(C)(C)Cc3c2cnn3-c2ccccc2C)o1 (centres unmarked) | -30.5%
COC(=O)c1c(NC(=O)COc2ccc(Cl)cc2)sc2c1CC(C)(C)NC2(C)C | 8.29%
